# Measured values as given in the antibiotic and cytotoxicity screens of Wong et al. (2023).
# The other results are listed elsewhere or left out.
# What was measured:
# HSkMC = human skeletal muscle cells; test: cytotoxicity call (relative viability < 0.9); details: 10 µM
# HepG2 = test: cytotoxicity call (relative viability < 0.9); details: 10 µM
# S. aureus RN4220 = test: growth inhibition call (relative growth <= 0.2); details: 50 µM
Compound,cytotoxicity call (HSkMC),cytotoxicity call (HepG2),growth inhibition call (S. aureus RN4220)
CCN1C(=O)/C(=C/c2ccc[nH]2)C(=O)NC1=S,inactive,inactive,inactive
CNC(=O)Oc1ccccc1OC(C)C,inactive,inactive,inactive
c1ccc2cc3c(cc2c1)-c1cccc2cccc-3c12,inactive,active,inactive
